# Source: the supplement of paper PMC8728848
# Some of the results follow.
# Experiments:
# Experiment in all cases: glycan array binding signal (z-score within array); higher = stronger binding
# Conditions in all cases: glycan notation: IUPAC condensed, linker removed
# [1] = biological target: Gal(b1-4)GalNAc(b1-3)[Fuc(a1-2)]Gal(b1-4)GlcNAc
# Summary of the method: (§1)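 Glycan array binding is given as a within-array Z-score, which can be read as non-binding when negative. The arrays, 3228 of them, came from the Consortium for Functional Glycomics database and were retained only where the protein sequence was available. Z-scores were averaged across arrays of the same protein sequence at different concentrations or buffers and across linkers.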
# [2] = biological target: Gal(b1-4)Glc
# Summary of the method: as §1
# [3] = biological target: Gal(b1-4)Glc6S
# Summary of the method: as §1
# [4] = biological target: Gal(b1-4)GlcNAc
# Summary of the method: as §1
# [5] = biological target: Gal(b1-4)GlcNAc(a1-6)Gal(b1-4)GlcNAc
# Summary of the method: as §1
# [6] = biological target: Gal(b1-4)GlcNAc(b1-2)Man
# Summary of the method: as §1
# [7] = biological target: Gal(b1-4)GlcNAc(b1-2)Man(a1-3)Man(b1-4)GlcNAc(b1-4)GlcNAc
# Summary of the method: as §1
# [8] = biological target: Gal(b1-4)GlcNAc(b1-2)Man(a1-3)[Gal(b1-4)GlcNAc(b1-2)Man(a1-6)]Man(b1-4)GlcNAc(b1-4)GlcNAc
# Summary of the method: as §1
# [9] = biological target: Gal(b1-4)GlcNAc(b1-2)Man(a1-3)[Gal(b1-4)GlcNAc(b1-2)Man(a1-6)]Man(b1-4)GlcNAc(b1-4)[Fuc(a1-6)]GlcNAc
# Summary of the method: as §1
# [10] = biological target: Gal(b1-4)GlcNAc(b1-2)Man(a1-3)[Gal(b1-4)GlcNAc(b1-2)Man(a1-6)][Gal(b1-4)GlcNAc(b1-4)]Man(b1-4)GlcNAc(b1-4)[Fuc(a1-6)]GlcNAc
# Summary of the method: as §1
# [11] = biological target: Gal(b1-4)GlcNAc(b1-2)Man(a1-3)[Gal(b1-4)GlcNAc(b1-2)Man(a1-6)][GlcNAc(b1-4)]Man(b1-4)GlcNAc(b1-4)[Fuc(a1-6)]GlcNAc
# Summary of the method: as §1
# [12] = biological target: Gal(b1-4)GlcNAc(b1-2)Man(a1-3)[GlcNAc(b1-2)Man(a1-6)]Man(b1-4)GlcNAc(b1-4)GlcNAc
# Summary of the method: as §1
# [13] = biological target: Gal(b1-4)GlcNAc(b1-2)Man(a1-3)[GlcNAc(b1-4)][Gal(b1-4)GlcNAc(b1-2)Man(a1-6)]Man(b1-4)GlcNAc(b1-4)GlcNAc
# Summary of the method: as §1
# [14] = biological target: Gal(b1-4)GlcNAc(b1-2)Man(a1-3)[Man(a1-6)]Man(b1-4)GlcNAc(b1-4)GlcNAc
# Summary of the method: as §1
# [15] = biological target: Gal(b1-4)GlcNAc(b1-2)Man(a1-6)Man(b1-4)GlcNAc(b1-4)GlcNAc
# Summary of the method: as §1
# [16] = biological target: Gal(b1-4)GlcNAc(b1-2)Man(a1-6)[GlcNAc(b1-2)Man(a1-3)]Man(b1-4)GlcNAc(b1-4)GlcNAc
# Summary of the method: as §1
# [17] = biological target: Gal(b1-4)GlcNAc(b1-2)Man(a1-6)[Man(a1-3)]Man(b1-4)GlcNAc(b1-4)GlcNAc
# Summary of the method: as §1
# [18] = biological target: Gal(b1-4)GlcNAc(b1-2)[Gal(b1-4)GlcNAc(b1-4)]Man(a1-3)[Gal(b1-4)GlcNAc(b1-2)Man(a1-6)]Man(b1-4)GlcNAc(b1-4)GlcNAc
# Summary of the method: as §1
# [19] = biological target: Gal(b1-4)GlcNAc(b1-2)[Gal(b1-4)GlcNAc(b1-4)]Man(a1-3)[Gal(b1-4)GlcNAc(b1-2)[Gal(b1-4)GlcNAc(b1-6)]Man(a1-6)]Man(b1-4)GlcNAc(b1-4)GlcNAc
# Summary of the method: as §1
# [20] = biological target: Gal(b1-4)GlcNAc(b1-2)[Gal(b1-4)GlcNAc(b1-4)]Man(a1-3)[GlcNAc(b1-4)][Gal(b1-4)GlcNAc(b1-2)Man(a1-6)]Man(b1-4)GlcNAc(b1-4)GlcNAc
# Summary of the method: as §1
# [21] = biological target: Gal(b1-4)GlcNAc(b1-2)[Gal(b1-4)GlcNAc(b1-4)]Man(a1-3)[GlcNAc(b1-4)][Gal(b1-4)GlcNAc(b1-2)[Gal(b1-4)GlcNAc(b1-6)]Man(a1-6)]Man(b1-4)GlcNAc(b1-4)GlcNAc
# Summary of the method: as §1
# [22] = biological target: Gal(b1-4)GlcNAc(b1-2)[Gal(b1-4)GlcNAc(b1-6)]Man(a1-6)[Gal(b1-4)GlcNAc(b1-2)Man(a1-3)]Man(b1-4)GlcNAc(b1-4)GlcNAc
# Summary of the method: as §1
# [23] = biological target: Gal(b1-4)GlcNAc(b1-2)[Gal(b1-4)GlcNAc(b1-6)]Man(a1-6)[Gal(b1-4)GlcNAc(b1-2)Man(a1-3)]Man(b1-4)GlcNAc(b1-4)[Fuc(a1-6)]GlcNAc
# Summary of the method: as §1
# [24] = biological target: Gal(b1-4)GlcNAc(b1-2)[Gal(b1-4)GlcNAc(b1-6)]Man(a1-6)[GlcNAc(b1-4)][Gal(b1-4)GlcNAc(b1-2)Man(a1-3)]Man(b1-4)GlcNAc(b1-4)GlcNAc
# Summary of the method: as §1
# [25] = biological target: Gal(b1-4)GlcNAc(b1-2)[Gal(b1-4)GlcNAc(b1-6)]Man(a1-6)[GlcNAc(b1-4)][Gal(b1-4)GlcNAc(b1-2)[Gal(b1-4)GlcNAc(b1-4)]Man(a1-3)]Man(b1-4)GlcNAc(b1-4)[Fuc(a1-6)]GlcNAc
# Summary of the method: as §1
# [26] = biological target: Gal(b1-4)GlcNAc(b1-3)Gal(b1-3)GalNAc
# Summary of the method: as §1
# [27] = biological target: Gal(b1-4)GlcNAc(b1-3)Gal(b1-3)GlcNAc
# Summary of the method: as §1
# [28] = biological target: Gal(b1-4)GlcNAc(b1-3)Gal(b1-4)Glc
# Summary of the method: as §1
# [29] = biological target: Gal(b1-4)GlcNAc(b1-3)Gal(b1-4)GlcNAc
# Summary of the method: as §1
# [30] = biological target: Gal(b1-4)GlcNAc(b1-3)Gal(b1-4)GlcNAc(b1-2)Man(a1-3)[Gal(b1-4)GlcNAc(b1-3)Gal(b1-4)GlcNAc(b1-2)Man(a1-6)]Man(b1-4)GlcNAc(b1-4)GlcNAc
# Summary of the method: as §1
# [31] = biological target: Gal(b1-4)GlcNAc(b1-3)Gal(b1-4)GlcNAc(b1-2)Man(a1-3)[Gal(b1-4)GlcNAc(b1-3)Gal(b1-4)GlcNAc(b1-2)Man(a1-6)]Man(b1-4)GlcNAc(b1-4)[Fuc(a1-6)]GlcNAc
# Summary of the method: as §1
# [32] = biological target: Gal(b1-4)GlcNAc(b1-3)Gal(b1-4)GlcNAc(b1-2)[Gal(b1-4)GlcNAc(b1-3)Gal(b1-4)GlcNAc(b1-6)]Man(a1-6)[Gal(b1-4)GlcNAc(b1-3)Gal(b1-4)GlcNAc(b1-2)Man(a1-3)]Man(b1-4)GlcNAc(b1-4)GlcNAc
# Summary of the method: as §1
# [33] = biological target: Gal(b1-4)GlcNAc(b1-3)Gal(b1-4)GlcNAc(b1-2)[Gal(b1-4)GlcNAc(b1-3)Gal(b1-4)GlcNAc(b1-6)]Man(a1-6)[Gal(b1-4)GlcNAc(b1-3)Gal(b1-4)GlcNAc(b1-2)Man(a1-3)]Man(b1-4)GlcNAc(b1-4)[Fuc(a1-6)]GlcNAc
# Summary of the method: as §1
# [34] = biological target: Gal(b1-4)GlcNAc(b1-3)Gal(b1-4)GlcNAc(b1-3)Gal(b1-4)GlcNAc
# Summary of the method: as §1
# [35] = biological target: Gal(b1-4)GlcNAc(b1-3)Gal(b1-4)GlcNAc(b1-3)Gal(b1-4)GlcNAc(b1-2)Man(a1-3)[Gal(b1-4)GlcNAc(b1-3)Gal(b1-4)GlcNAc(b1-3)Gal(b1-4)GlcNAc(b1-2)Man(a1-6)]Man(b1-4)GlcNAc(b1-4)GlcNAc
# Summary of the method: as §1
# [36] = biological target: Gal(b1-4)GlcNAc(b1-3)Gal(b1-4)GlcNAc(b1-3)Gal(b1-4)GlcNAc(b1-2)Man(a1-3)[Gal(b1-4)GlcNAc(b1-3)Gal(b1-4)GlcNAc(b1-3)Gal(b1-4)GlcNAc(b1-2)Man(a1-6)]Man(b1-4)GlcNAc(b1-4)[Fuc(a1-6)]GlcNAc
# Summary of the method: as §1
# [37] = biological target: Gal(b1-4)GlcNAc(b1-3)Gal(b1-4)GlcNAc(b1-3)Gal(b1-4)GlcNAc(b1-2)[Gal(b1-4)GlcNAc(b1-3)Gal(b1-4)GlcNAc(b1-3)Gal(b1-4)GlcNAc(b1-6)]Man(a1-6)[Gal(b1-4)GlcNAc(b1-3)Gal(b1-4)GlcNAc(b1-3)Gal(b1-4)GlcNAc(b1-2)Man(a1-3)]Man(b1-4)GlcNAc(b1-4)[Fuc(a1-6)]GlcNAc
# Summary of the method: as §1
# [38] = biological target: Gal(b1-4)GlcNAc(b1-3)Gal(b1-4)GlcNAc(b1-3)Gal(b1-4)GlcNAc(b1-3)Gal(b1-4)GlcNAc(b1-2)Man(a1-3)[Gal(b1-4)GlcNAc(b1-3)Gal(b1-4)GlcNAc(b1-3)Gal(b1-4)GlcNAc(b1-3)Gal(b1-4)GlcNAc(b1-2)Man(a1-6)]Man(b1-4)GlcNAc(b1-4)GlcNAc
# Summary of the method: as §1
binder,measurement,setting,value
"UEA-I (Ulex europaeus), P22972 (protein) SDDLSFKFKNFSQNGKDLSFQGDASVIETGVLQLNKVGNNLPDETGGIARYIAPIHIWNCNTGEVASFITSFSFFMETSANPKAATDGLTFFLAPPDSPLRRAGGYFGLFEDTKDNDSSYQTVAVEFDTIGSPVNFDDPGFPHIGIDVNRVKSINAERWNKRYGLNNVANVEIIYEASSKTLTASLTYPSDQTSISVTSIVDLKEILPEWVSVGFSGGTYIGRQATHEVLNWYFTSNLINTNS",glycan array binding signal (z-score),[1],-0.23
same,glycan array binding signal (z-score),[2],-0.147
same,glycan array binding signal (z-score),[3],-0.199
same,glycan array binding signal (z-score),[4],-0.196
same,glycan array binding signal (z-score),[5],-0.182
same,glycan array binding signal (z-score),[6],-0.23
same,glycan array binding signal (z-score),[7],-0.074
same,glycan array binding signal (z-score),[8],-0.309
same,glycan array binding signal (z-score),[9],-0.042
same,glycan array binding signal (z-score),[10],-0.208
same,glycan array binding signal (z-score),[11],-0.175
same,glycan array binding signal (z-score),[12],-0.203
same,glycan array binding signal (z-score),[13],-0.232
same,glycan array binding signal (z-score),[14],-0.193
same,glycan array binding signal (z-score),[15],-0.233
same,glycan array binding signal (z-score),[16],-0.155
same,glycan array binding signal (z-score),[17],-0.184
same,glycan array binding signal (z-score),[18],-0.165
same,glycan array binding signal (z-score),[19],-0.195
same,glycan array binding signal (z-score),[20],-0.241
same,glycan array binding signal (z-score),[21],-0.233
same,glycan array binding signal (z-score),[22],-0.025
same,glycan array binding signal (z-score),[23],-0.124
same,glycan array binding signal (z-score),[24],-0.195
same,glycan array binding signal (z-score),[25],-0.123
same,glycan array binding signal (z-score),[26],-0.271
same,glycan array binding signal (z-score),[27],-0.141
same,glycan array binding signal (z-score),[28],-0.149
same,glycan array binding signal (z-score),[29],-0.207
same,glycan array binding signal (z-score),[30],0.184
same,glycan array binding signal (z-score),[31],-0.011
same,glycan array binding signal (z-score),[32],-0.144
same,glycan array binding signal (z-score),[33],-0.047
same,glycan array binding signal (z-score),[34],-0.19
same,glycan array binding signal (z-score),[35],0.274
same,glycan array binding signal (z-score),[36],-0.105
same,glycan array binding signal (z-score),[37],-0.002
same,glycan array binding signal (z-score),[38],-0.135
